{"source": "the BET-seq Pho4 binding data (Le et al. 2018)", "note": "This is one part of the list. Values were computed here from the reads of four pooled replicates and scatter widely.", "data": [{"molecular_target": "T1, Pho4 (S. cerevisiae) (UniProt P07270)", "T1 sequence": "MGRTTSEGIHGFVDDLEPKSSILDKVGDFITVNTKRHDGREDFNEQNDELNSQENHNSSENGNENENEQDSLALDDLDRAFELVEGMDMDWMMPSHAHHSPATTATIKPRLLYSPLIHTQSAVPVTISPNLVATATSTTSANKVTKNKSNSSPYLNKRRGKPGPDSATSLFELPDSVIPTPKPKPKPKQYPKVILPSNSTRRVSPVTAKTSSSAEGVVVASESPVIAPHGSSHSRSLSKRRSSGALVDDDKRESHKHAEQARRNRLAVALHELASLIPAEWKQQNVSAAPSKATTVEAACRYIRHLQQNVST", "test": "relative binding free energy (BET-seq); higher = weaker binding", "details": "reference: library average", "units": {"relative binding free energy": "kJ/mol"}, "values": [{"sequence": "CATGGCACGTGGTAGG", "relative binding free energy": -1}, {"sequence": "TTGAACACGTGTTCTG", "relative binding free energy": -0.0837}, {"sequence": "CAGTCCACGTGGTGGT", "relative binding free energy": 0.0418}, {"sequence": "CTAGGCACGTGAGGGA", "relative binding free energy": -0.167}, {"sequence": "TAATTCACGTGAGTAT", "relative binding free energy": 1.26}, {"sequence": "ATGGACACGTGGTCTA", "relative binding free energy": -0.377}, {"sequence": "GGTTACACGTGAATAT", "relative binding free energy": 2.76}, {"sequence": "ATTATCACGTGATTTT", "relative binding free energy": 0.962}, {"sequence": "CTTGTCACGTGAGTCG", "relative binding free energy": 1.38}, {"sequence": "CATTTCACGTGTGTAA", "relative binding free energy": 0.795}, {"sequence": "TCATTCACGTGTTTTC", "relative binding free energy": 1.3}, {"sequence": "GTTTCCACGTGCGGGG", "relative binding free energy": 0.0418}, {"sequence": "TCGGACACGTGGGTTG", "relative binding free energy": -0.126}, {"sequence": "GAGTCCACGTGGTTGG", "relative binding free energy": -0.167}, {"sequence": "TCAGACACGTGCGGGT", "relative binding free energy": 0.293}, {"sequence": "CGGGCCACGTGGGATG", "relative binding free energy": -0.92}, {"sequence": "TGGAACACGTGGGGTG", "relative binding free energy": -0.628}, {"sequence": "ATGTGCACGTGTAGCT", "relative binding free energy": -0.628}, {"sequence": "GGTGTCACGTGGATAT", "relative binding free energy": 0.795}, {"sequence": "AGGTACACGTGGGAAA", "relative binding free energy": 0}, {"sequence": "TAGGACACGTGAGGTA", "relative binding free energy": 1.21}, {"sequence": "CGGGTCACGTGTTCGT", "relative binding free energy": 0.251}, {"sequence": "TATTTCACGTGCCTTT", "relative binding free energy": 0.753}, {"sequence": "AGTGTCACGTGGGTCA", "relative binding free energy": -0.335}, {"sequence": "GAAGCCACGTGTGGAG", "relative binding free energy": 0.795}, {"sequence": "CGAGTCACGTGGCTGG", "relative binding free energy": 0.46}, {"sequence": "ACGATCACGTGTTGTG", "relative binding free energy": 0.167}, {"sequence": "TGTGTCACGTGTCATA", "relative binding free energy": 0.126}, {"sequence": "TAAAGCACGTGTTAGT", "relative binding free energy": -0.586}, {"sequence": "GGGTTCACGTGTAGTA", "relative binding free energy": 1.38}, {"sequence": "TATGCCACGTGGGCTG", "relative binding free energy": -0.544}, {"sequence": "ATTCGCACGTGGGTCT", "relative binding free energy": -0.544}, {"sequence": "GTTATCACGTGCGAGT", "relative binding free energy": 1.13}, {"sequence": "TTCCTCACGTGAGGTG", "relative binding free energy": 1.51}, {"sequence": "CTCGCCACGTGGTGGG", "relative binding free energy": -0.544}, {"sequence": "ATGCTCACGTGTAGTT", "relative binding free energy": 0.795}, {"sequence": "GGGGACACGTGGTTGC", "relative binding free energy": -0.586}, {"sequence": "AGGGACACGTGGCGTT", "relative binding free energy": -0.126}, {"sequence": "GGACACACGTGAGGGG", "relative binding free energy": 0.586}, {"sequence": "TGGGGCACGTGCAATA", "relative binding free energy": -0.837}, {"sequence": "ATGTACACGTGTGGAC", "relative binding free energy": 0.795}, {"sequence": "TGAGTCACGTGATCGT", "relative binding free energy": 0.377}, {"sequence": "GTTGTCACGTGTGAAT", "relative binding free energy": 0.586}, {"sequence": "TGCTGCACGTGTGCGT", "relative binding free energy": -0.377}, {"sequence": "GGTGGCACGTGTGGTT", "relative binding free energy": 0.335}, {"sequence": "TGTTGCACGTGTGCTT", "relative binding free energy": -0.251}, {"sequence": "AAATGCACGTGTATTG", "relative binding free energy": 0.0418}, {"sequence": "TGGGTCACGTGCTTGG", "relative binding free energy": 0.418}, {"sequence": "GGATACACGTGGGCAG", "relative binding free energy": -0.0418}, {"sequence": "GCGCTCACGTGTGTGG", "relative binding free energy": 0.167}, {"sequence": "CATATCACGTGTTGTT", "relative binding free energy": 1}, {"sequence": "GTCGTCACGTGTGCGG", "relative binding free energy": 0.669}, {"sequence": "GATTGCACGTGGTGAC", "relative binding free energy": 0.628}, {"sequence": "TTATTCACGTGGTGTC", "relative binding free energy": 0.837}, {"sequence": "ATTTTCACGTGTAAGA", "relative binding free energy": 1}, {"sequence": "TAAGGCACGTGTACTG", "relative binding free energy": -0.0837}, {"sequence": "TTGATCACGTGGCACG", "relative binding free energy": 0.879}, {"sequence": "TTGTTCACGTGGCCTT", "relative binding free energy": 0.628}, {"sequence": "TTTCACACGTGGTGCT", "relative binding free energy": 0.251}, {"sequence": "GTTTCCACGTGTGTAG", "relative binding free energy": 0.126}, {"sequence": "GTATTCACGTGTTTTC", "relative binding free energy": 1.46}, {"sequence": "TGTGTCACGTGGGCCG", "relative binding free energy": -0.377}, {"sequence": "ATTTCCACGTGATTTT", "relative binding free energy": 0.502}, {"sequence": "TAGTGCACGTGATGTT", "relative binding free energy": 0.293}, {"sequence": "TTTGTCACGTGGCTCG", "relative binding free energy": 0.711}, {"sequence": "TTTTCCACGTGGTGTA", "relative binding free energy": -0.293}, {"sequence": "TGTATCACGTGATAAG", "relative binding free energy": 0.837}, {"sequence": "GAATGCACGTGATAGT", "relative binding free energy": 0.418}, {"sequence": "CTTATCACGTGGGGGA", "relative binding free energy": -0.502}, {"sequence": "GATAGCACGTGAGGGG", "relative binding free energy": 1}, {"sequence": "CGGTTCACGTGTATTT", "relative binding free energy": 1.21}, {"sequence": "GGGAACACGTGATTGG", "relative binding free energy": 0.753}, {"sequence": "TTTAGCACGTGTGTAC", "relative binding free energy": -0.46}, {"sequence": "TTGTCCACGTGTCTGG", "relative binding free energy": 0.167}, {"sequence": "TTAATCACGTGATTTG", "relative binding free energy": 1.13}, {"sequence": "AAGGGCACGTGAAAAG", "relative binding free energy": 0.753}, {"sequence": "TATAACACGTGTAGGA", "relative binding free energy": 0.335}, {"sequence": "TCAGTCACGTGTGGCG", "relative binding free energy": 0.544}, {"sequence": "GTTGCCACGTGGGACG", "relative binding free energy": -0.544}, {"sequence": "AATCTCACGTGGTTGT", "relative binding free energy": 0.879}, {"sequence": "GTTCACACGTGAAGGT", "relative binding free energy": 2.09}, {"sequence": "GGTATCACGTGGGTTG", "relative binding free energy": -0.0837}, {"sequence": "CGGGGCACGTGTTAAT", "relative binding free energy": -1.05}, {"sequence": "AGGGGCACGTGAGATT", "relative binding free energy": 0.92}, {"sequence": "TAGTACACGTGGTATT", "relative binding free energy": -0.335}, {"sequence": "AGATTCACGTGGGAAT", "relative binding free energy": 0.46}, {"sequence": "AGGGACACGTGGATAG", "relative binding free energy": -0.0837}, {"sequence": "GGCTGCACGTGTTCTG", "relative binding free energy": 0.251}, {"sequence": "TTGAGCACGTGGAGTG", "relative binding free energy": -0.669}, {"sequence": "GCAGTCACGTGGTGAT", "relative binding free energy": -0.0837}, {"sequence": "GTCTTCACGTGGAGTG", "relative binding free energy": 1.38}, {"sequence": "CAGCGCACGTGTTGGG", "relative binding free energy": -0.753}, {"sequence": "GGCGACACGTGAATGG", "relative binding free energy": 1.34}, {"sequence": "GTCCTCACGTGTTTTT", "relative binding free energy": 1.34}, {"sequence": "GTTGCCACGTGGTCGT", "relative binding free energy": -0.837}, {"sequence": "ATGGGCACGTGGAGTT", "relative binding free energy": 0.0837}, {"sequence": "GTTGACACGTGTAGGG", "relative binding free energy": 0.335}, {"sequence": "TTTATCACGTGCGGAA", "relative binding free energy": 0.711}, {"sequence": "CCATTCACGTGTTGTG", "relative binding free energy": 1.26}, {"sequence": "TGGTGCACGTGTAACG", "relative binding free energy": -0.126}, {"sequence": "TTGTACACGTGTTTGA", "relative binding free energy": 0.335}, {"sequence": "AGTGACACGTGTATGA", "relative binding free energy": 0.377}, {"sequence": "ATTGGCACGTGTCGGG", "relative binding free energy": -0.544}, {"sequence": "TTGATCACGTGATTGT", "relative binding free energy": 1.3}, {"sequence": "TGGGGCACGTGGATGT", "relative binding free energy": -0.0837}, {"sequence": "CTTTACACGTGTTAGT", "relative binding free energy": 0.0418}, {"sequence": "CAATTCACGTGAGGGG", "relative binding free energy": 1.59}, {"sequence": "GACTTCACGTGGGGTG", "relative binding free energy": 0.544}, {"sequence": "AGTGGCACGTGGAACG", "relative binding free energy": -0.377}, {"sequence": "GGGCGCACGTGGAATT", "relative binding free energy": 0.0837}, {"sequence": "GTGGGCACGTGGGGTG", "relative binding free energy": -0.879}, {"sequence": "TTTGACACGTGCTGGG", "relative binding free energy": -0.0837}, {"sequence": "TGTGTCACGTGGGCCT", "relative binding free energy": -0.628}, {"sequence": "TTTGCCACGTGTGTTG", "relative binding free energy": -0.544}, {"sequence": "CGTATCACGTGTTGTT", "relative binding free energy": 0.544}, {"sequence": "TGATACACGTGTGCAT", "relative binding free energy": 0.167}, {"sequence": "TGCTGCACGTGTTCTT", "relative binding free energy": 0.418}, {"sequence": "TAAGACACGTGCTGGG", "relative binding free energy": 0.126}, {"sequence": "TTTTGCACGTGGGGCC", "relative binding free energy": -0.586}, {"sequence": "TAGTACACGTGGGGCT", "relative binding free energy": -0.0418}, {"sequence": "GGTTCCACGTGGTTTC", "relative binding free energy": 0.879}, {"sequence": "AATGACACGTGGTATG", "relative binding free energy": -0.167}, {"sequence": "CGTCGCACGTGGTTGT", "relative binding free energy": -0.293}, {"sequence": "TGTCACACGTGCGGCG", "relative binding free energy": 0.879}, {"sequence": "ATTTACACGTGAGGAG", "relative binding free energy": 1.42}, {"sequence": "TTTGCCACGTGGATTG", "relative binding free energy": 0}, {"sequence": "TTCTACACGTGTCGTT", "relative binding free energy": 0.92}, {"sequence": "TATGACACGTGGTGCT", "relative binding free energy": -0.293}, {"sequence": "TGAGTCACGTGTAGGA", "relative binding free energy": 0.418}, {"sequence": "TATGGCACGTGGCAGG", "relative binding free energy": -0.209}, {"sequence": "TTAGACACGTGTTAGA", "relative binding free energy": 0}, {"sequence": "TTTTGCACGTGTGTTA", "relative binding free energy": -0.0418}, {"sequence": "TGAGTCACGTGGATTG", "relative binding free energy": 0.711}, {"sequence": "GGGTGCACGTGGGTCG", "relative binding free energy": -0.586}, {"sequence": "AATGTCACGTGGTGTC", "relative binding free energy": 0.126}, {"sequence": "TAGGCCACGTGATGGG", "relative binding free energy": -0.167}, {"sequence": "ATGTTCACGTGTAATT", "relative binding free energy": 1.17}, {"sequence": "TGCAACACGTGTTGTA", "relative binding free energy": -0.251}, {"sequence": "CGGTTCACGTGGTATT", "relative binding free energy": 1.05}, {"sequence": "AAGTTCACGTGTTGAT", "relative binding free energy": 1}, {"sequence": "TGGTTCACGTGGGAAT", "relative binding free energy": 0.711}, {"sequence": "TTGGGCACGTGTTCTT", "relative binding free energy": -0.126}, {"sequence": "TGGTTCACGTGTCAGG", "relative binding free energy": 1.84}, {"sequence": "TGGATCACGTGGGATG", "relative binding free energy": 0.586}, {"sequence": "ATGTCCACGTGGGAGG", "relative binding free energy": -0.879}, {"sequence": "TCAAGCACGTGGTGAG", "relative binding free energy": -0.586}]}]}
